The supplement of paper PMC7266297
Counter-ions that a name gives are not always drawn. Some of the results follow. Most values come without repeats; read them as rough.

How the values were obtained:
[1] = tested on: KB-3-1; assay: growth inhibition relative to DMSO control (SRB); cervical cancer cells: KB-3-1 is the parent and KB-V1 overexpresses MDR1; SRB is the sulforhodamine B stain; higher = more growth inhibition; settings: 1 µM; 72 h
[2] = tested on: KB-V1; assay: as above; settings: 1 µM; 72 h
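Also: Read-out is SRB optical density at 490 nm, with the control being wells given 0.5% DMSO vehicle, and compound added one day after cells were plated.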

| Compound | growth inhibition [1] [%] | growth inhibition [2] [%] |
| --- | --- | --- |
| Cn1cnc2c(F)c(Nc3ccc(Br)cc3Cl)c(C(=O)NOCCO)cc21 [Selumetinib (AZD6244)] | 38.4 | 45.2 |
| CN(C)CC(c1ccc(O)cc1)C1(O)CCCCC1 (stereo not given) [Desvenlafaxine Succinate] | 9.32 | 7.06 |
| CC[C@H](NC(=O)[C@H](C)NC)C(=O)N1C[C@@H](O)C[C@H]1Cc1c(-c2[nH]c3cc(F)ccc3c2C[C@@H]2C[C@H](O)CN2C(=O)[C@H](CC)NC(=O)[C@H](C)NC)[nH]c2cc(F)ccc12 [Birinapant] | 22.2 | 10.5 |
| C[C@]12C=CC(=O)N[C@@H]1CC[C@@H]1[C@@H]2CC[C@]2(C)[C@@H](C(=O)Nc3cc(C(F)(F)F)ccc3C(F)(F)F)CC[C@@H]12 [Dutasteride] | 40.3 | 42.8 |
| CNC(=O)c1cc(Oc2ccc(NC(=O)Nc3ccc(Cl)c(C(F)(F)F)c3)cc2)ccn1 [Sorafenib] | 58.6 | 17.9 |
| O=S(=O)(c1ccccc1)N(CC(F)(F)F)c1ccc(C(O)(C(F)(F)F)C(F)(F)F)cc1 | 25.6 | 24.5 |
| O=C(c1cncc(Br)c1)N1CCC(N2CCCC2)CC1 | 50.2 | < 0 |
| C[S+]([O-])c1ccc(-c2nc(-c3ccc(F)cc3)c(-c3ccncc3)[nH]2)cc1 (stereo not given) | 10.6 | 21.2 |
| CN1CCN(c2cccc(Nc3nc4c(-c5ccc(S(C)(=O)=O)cc5)cccn4n3)c2)CC1 | 33.7 | 8.76 |
| O=C(c1ccc(C(=O)N2CCC(N3CCCC3)CC2)c(Nc2ccccc2)c1)N1CCC(N2CCCC2)CC1 | < 0 | 4.8 |
| CN1CCc2c(c3ccccc3n2Cc2ccc(C(=O)NO)cc2)C1 [Tubastatin A HCl] | 16.2 | < 0 |
| Cn1c(Nc2ccc(C(F)(F)F)cc2)nc2cc(Oc3ccnc(-c4ncc(C(F)(F)F)[nH]4)c3)ccc21 | < 0 | 43.9 |
| CCCCCCCCCCCCCCCCn1cc[n+](Cc2ccccc2)c1C | 99.1 | 89.5 |
| C[N+]1(C)CCC(=C(c2ccccc2)c2ccccc2)CC1 [Diphemanil Methylsulfate] | 0.562 | 12.1 |
| CN(C)C(=O)c1ccc(S(=O)(=O)c2ccc(NC(=O)[C@@](C)(O)C(F)(F)F)c(Cl)c2)cc1 | 45.6 | 5.56 |
| C=C1C(=O)O[C@H]2[C@H]1CC/C(C)=C/CC[C@@]1(C)O[C@@H]21 [(-)-Parthenolide] | 27.4 | 43.9 |
| CN[C@H]1CC[C@@H](c2ccc(Cl)c(Cl)c2)c2ccccc21 [Sertraline HCl] | 31.1 | 13.9 |
| CC(C)c1nc(CN(C)C(=O)N[C@H](C(=O)N[C@@H](Cc2ccccc2)C[C@H](O)[C@H](Cc2ccccc2)NC(=O)OCc2cncs2)C(C)C)cs1 [Ritonavir] | 30.9 | 36.7 |
| O=C(NCCN1CCOCC1)c1ccc(Cl)cc1 | < 0 | 2.94 |
| Cc1cc(OCc2nnc(SC3CCCC3)n2-c2cccnc2)ccc1-c1ccc(S(C)(=O)=O)cc1 | 58.6 | 71.8 |
| Cc1[nH]c(/C=C2\C(=O)Nc3ccccc32)c(C)c1CCC(=O)O [TSU-68 (SU6668, Orantinib)] | 32.5 | 18.4 |
| C#Cc1cccc(Nc2ncnc3cc(OCCOC)c(OCCOC)cc23)c1 [Erlotinib HCl (OSI-744)] | 32.4 | 8.7 |
| Cc1c(Cn2c(C)nc3c(C(=O)O)cc(N4CCOCC4)cc32)cccc1C(F)(F)F | 47.9 | 11.7 |
| C[C@H]1[C@H](C)CC[C@]2(C(=O)O)CC[C@]3(C)C(=CC[C@@H]4[C@@]5(C)C[C@@H](O)[C@H](O)[C@@](C)(CO)[C@@H]5CC[C@]43C)[C@H]12 [Asiatic Acid] | < 0 | 36.4 |
| CC(C)NCC(O)c1ccc(O)c(O)c1 (stereo not given) [Isoprenaline HCl] | 31 | 15.6 |
| CC1(C)CC(=O)c2c(C(F)(F)F)nn(-c3ccc(C(N)=O)c(N[C@H]4CC[C@H](OC(=O)CN)CC4)c3)c2C1 | < 0 | < 0 |
| Cc1nnc(C(=O)NC(C)(C)c2nc(C(=O)NCc3ccc(F)cc3)c(O)c(=O)n2C)o1 [Raltegravir (MK-0518)] | 48.5 | 18.9 |
| O=C(Nc1cccnc1)N1CCC(Cc2cccc(Oc3ccc(C(F)(F)F)cn3)c2)CC1 | < 0 | 7.81 |
| COc1cc(N2CCC(N3CCN(C)CC3)CC2)ccc1Nc1ncc(Cl)c(Nc2ccccc2S(=O)(=O)C(C)C)n1 | 97.9 | 92.1 |
| O=C(O)C(O)Cc1ccc(O)c(O)c1 (stereo not given) [Sodium Danshensu] | < 0 | < 0 |
